Results on 91 molecules are retold here after PubChem BioAssay AID463173 (ICCB-Longwood Screening Facility, Harvard Medical School, 2010).

Among all 52,000 compounds or so, about 4,300 (8.3%) were called active. No stated cut-off is given here; in the data, active means survival mostly below about 52% (no sharp cut-off); inactive means mostly above about 56%. This is one part of the list.

For the test, the system named is DeltatarO mutant. In words: S. aureus survival, RN4220 and DeltatarO strains – OD600, teichoic acid synthesis inhibitors, primary screen (AID 463173). The following applies: S. aureus RN4220 wild type/DeltatarO growth, OD600, 18 h, hits give low values, screened at 18.75 µg/mL (by protocol).
`Cc1ccc(NC(=O)CSc2ncc3c(n2)-c2ccccc2N(C)S3(=O)=O)c(Cl)c1`: the survival was inactive: 63%.
`COc1ccc(CN(C)c2ccc(-c3nc(C)no3)cc2[N+](=O)[O-])cc1`: the survival was inactive: 75%.
On to `Cc1cc(=O)n2nc(N3CCC(C(=O)NCc4ccccc4F)CC3)sc2n1`, for which the survival is inactive: 108%.
In the case of `CN1CCN(CCNC(=O)c2cnn(-c3cccc(Cl)c3)c2C2CCN(C(=O)OC(C)(C)C)CC2)CC1`, the survival was inactive: 71%.
For `CCc1ccc(CNC(=O)Cn2nc(C)c3c(C)n(-c4ccc(C)cc4)nc3c2=O)cc1`, the survival is inactive: 79%.
Take `CCC(CC)C(=O)Nc1cccc(-c2nc3ncccn3c2C)c1`: the survival is inactive: 77%.
Turning to `CCN(CC)C(=O)c1sc2c(c1C)c(=O)n(-c1ccc(OC)cc1OC)c(=O)n2Cc1cc(C)ccc1C`, the survival is inactive: 87%.
Next, `COc1cccc(-c2nn(C)c3sc(C(=O)NCc4ccc(C)cc4)cc23)c1`: inactive: 67%.
Take `CCOC(=O)c1cc(S(=O)(=O)NCc2ccc(F)cc2)[nH]n1`: the survival was inactive: 134%.
Consider `O=S(=O)(c1ccccc1)N1CCCC(c2nc(-c3cccs3)no2)C1` (stereo unspecified), for which the survival is inactive: 67%.
As to `Cc1ccc(-c2nc(C)c(CCNC(=O)C(=O)Nc3ccc(C)c(Cl)c3)s2)cc1`, the survival is inactive: 74%.
Turning to `CC(=O)Nc1ccccc1OCc1cc(=O)n2c(C)csc2n1`, the survival was inactive: 102%.
As for `CN(C)C(=O)CSc1nnc2n1C(C)(C)Cc1ccccc1-2`, the survival is inactive: 80%.
As for `O=C(O)C1=C(C(=O)Nc2ccc(F)c(Cl)c2)CCCC1`, the figure is inactive: 78%.
For the molecule `N#Cc1c(C(F)(F)F)cc(-c2ccco2)nc1SCc1ccncc1`, the survival was inactive: 114%.
`O=S(=O)(NCc1ccco1)c1cccc(S(=O)(=O)N2CCCCC2)c1`: the survival was inactive: 90%.
As for `Cc1cc2c(C)cc(=O)oc2c2c1NCCC2`, the figure is inactive: 96%; as for `COc1cccc(-c2n[nH]c3c2C(c2cccc(O)c2)N(C)C3=O)c1` (stereo unspecified), inactive: 47%.
With `CCS(=O)(=O)N1CC(=O)N(c2cccc(C)c2C)C(C)(C(=O)NC2CCCCCC2)C1` (stereo unspecified), the survival is inactive: 94%.
As for `COc1ccc(CNC(=O)c2cnn(-c3ccc(OC)cc3)c2C2CCN(C(=O)OC(C)(C)C)CC2)cc1`, the figure is inactive: 74%; as for `COCCCNc1ncnc2ccc(Br)cc12`, inactive: 83%; as for `CN1CCN(C(=O)c2ccc(N(C)S(C)(=O)=O)cc2)CC1`, inactive: 107%.
`Cc1nc(SCC(=O)Nc2ccccc2Cl)cc(-c2ccccc2)n1`: the survival is active: 56%.
With `Cc1c2cnn(-c3ccccc3)c(=O)c2c(C)n1CC(=O)N1CCN(c2cccc(Cl)c2)CC1`, the survival is inactive: 91%.
As for `NC(CC(=O)OC1CCCCC1)C(=O)OC1CCCCC1` (stereo unspecified), the figure is inactive: 89%.
Take `CCN(CC)c1nn2c(=O)c(C(=O)NCc3cccc(OC)c3OC)cnc2s1`: the survival is inactive: 83%.
Turning to `COc1cccc(NC(=O)CSc2cc(C)[nH]c(=O)n2)c1`, the survival was inactive: 83%.
Consider `COCCCNC(=O)c1sc2nc(C)c(C(=O)Nc3ccc(Cl)cc3)c(-c3ccc(Br)cc3)c2c1N`, for which the survival was inactive: 56%.
For the molecule `CC1N=C2c3ccccc3N=C(SCC(=O)NCc3ccc(Cl)cc3)N2C1=O` (stereo unspecified), the survival was inactive: 69%.
Turning to `Cc1cccc(NCN2C(=O)S/C(=C/c3ccc(N(C)C)cc3)C2=O)c1`, the survival is inactive: 73%.
Consider `Cc1ccc2onc(CNC(=O)N(C)Cc3ccccc3)c2c1`, for which the survival is inactive: 73%.
On to `CCN(CC)CCNC(=O)c1sc2nc(C)cc(C)c2c1-n1cccc1`, for which the survival was inactive: 86%.
Take `COc1ccc(-n2c(Cc3ccccc3)nnc2SCc2nc(-c3ccccc3C)no2)cc1`: the survival was inactive: 64%.
As for `CCc1ccccc1NC(=O)Cn1c(C(=O)OC)cc2oc(C)cc21`, the survival was inactive: 86%.
With `CCOC(=O)c1ccc(NC(=O)c2cccc3c(=O)c4c([nH]c23)CCCC4)cc1`, the survival is inactive: 60%.
As to `COc1ccc(NC(=O)Cn2ccn(Cc3ccccc3)c(=O)c2=O)cc1Cl`, the survival is inactive: 50%.
Regarding `CN(C(=O)CSc1cn(CC(=O)N2CCCC2)c2ccccc12)c1ccccc1`, the survival is inactive: 55%.
With `O=C(Nc1ccc(Br)cc1F)c1ccc2nc(CCc3ccccc3)oc2c1`, the survival is inactive: 92%.
On to `O=C1c2[nH]nc(-c3ccccc3O)c2C(c2cccc(Br)c2)N1Cc1ccncc1` (stereo unspecified), for which the survival was inactive: 85%.
Turning to `CCCCOc1ccc(S(=O)(=O)Nc2ccc(-c3ccc(N4CCCCC4)nn3)cc2)cc1`, the survival was inactive: 77%.
With `Cc1cccc2c1-c1sc(C(=O)Nc3ccccc3C(N)=O)cc1CO2`, the survival was inactive: 110%.
Consider `CCC(=O)Nc1cc(-c2nc3cc(C)cc(C)c3o2)ccc1C`, for which the survival is inactive: 65%.
In the case of `Cc1ccccc1OCC(=O)NCC(c1ccc(Cl)cc1)N1CCOCC1` (stereo unspecified), the survival is inactive: 70%.
Regarding `Cc1cc(C)cc(NC(c2cccc(Cl)c2)c2nnc(-c3ccccc3)o2)c1` (stereo unspecified), the survival was inactive: 92%.
Regarding `Cc1c(C(=O)N(C)c2ccccc2)sc2nc(-c3ccc(F)cc3)cn12`, the survival is inactive: 78%.
Regarding `CCc1cc2c(cc3c(=O)n(CC(=O)NC4CCC(C)CC4)nc(CC)n32)s1` (stereo unspecified), the survival was inactive: 115%.
As for `O=C1c2oc3ccccc3c(=O)c2C(c2ccccc2F)N1Cc1ccc2c(c1)OCO2` (stereo unspecified), the figure is inactive: 77%; as for `COc1cc2c(cc1OC)C(COc1ccccc1OC)N(C(=O)c1ccc(S(=O)(=O)N3CCCC3)cc1)CC2` (stereo unspecified), active: 32%; as for `Cc1ccc(C)c(NC(=O)N2CCN(c3nnc(C)c4c(C)n(-c5ccccc5)nc34)CC2)c1`, inactive: 88%.
For `CCOC(=O)c1cc(-c2ccccc2)n(-c2cccc(C(=O)NC(C)CC)c2)c1C` (stereo unspecified), the survival was inactive: 49%.
Take `NC(=O)Cn1cnc2sc3c(c2c1=O)CCCC3`: the survival was inactive: 65%.
For the molecule `O=C(Cn1ncc2c3ccccc3n(Cc3ccc(F)cc3)c2c1=O)NC1CCCCCC1`, the survival is inactive: 80%.
On to `COc1ccc(Nc2nc(-c3ccccc3)c3cc(Br)ccc3n2)cc1`, for which the survival was active: 23%.
As to `Cc1ccc(N(C)S(=O)(=O)c2ccc(-c3cnc(C4CC4)o3)cc2)cc1`, the survival was inactive: 67%.
As for `CC(C)Oc1ccc(CNC(=O)c2ccc3c(c2)N(Cc2ccc(F)cc2)CCS3)cc1`, the survival is inactive: 65%.
As for `O=C(C1CCCCC1)N(Cc1cccnc1)c1nc2c(F)cccc2s1`, the figure is inactive: 86%; as for `Clc1ccccc1CNc1nc2ccccc2c2nc(-c3ccccc3)nn12`, inactive: 108%.
For the molecule `CCOc1ccc(NC(=O)CSc2ccc3ccccc3n2)cc1`, the survival was inactive: 67%.
As for `COCCCNC(=O)CN1C(=O)COc2ccc(S(=O)(=O)N3CCOCC3)cc21`, the survival was inactive: 110%.
As for `O=C(CCNS(=O)(=O)c1cccc2nonc12)Nc1ccc(F)cc1`, the figure is active: 45%.
On to `COC(=O)CSCc1nc(-c2ccc(C(=O)OC)cc2)oc1C`, for which the survival is inactive: 78%.
As to `NC(=O)CSc1nc2ccccc2c(=O)n1Cc1ccco1`, the survival is inactive: 72%.
For `COC(=O)c1cccc(Nc2c(-c3ccc(O)cc3)nc3nc[nH]n23)c1`, the survival is inactive: 144%.
Next, `COc1ccc(N2CCN(C(=O)c3cn(C4CCCCC4)c(=O)c4c3c3ccccc3n4C)CC2)cc1`: inactive: 87%.
`CCC(C)NC(=O)C1CCCN(S(=O)(=O)c2ccc(C)c(Cl)c2)C1` (stereo unspecified): the survival was inactive: 94%.
Consider `Cc1cc(C)c(S(=O)(=O)Nc2ccc(-c3ccc(N4CCCCC4)nn3)cc2)c(C)c1`, for which the survival was inactive: 77%.
For `CCOc1ccccc1NC(=O)c1c(NC(=O)Cc2ccccc2)sc2c1CCCC2`, the survival is inactive: 81%.
On to `COc1ccc(C)cc1NC(=O)CN1CCCN(S(=O)(=O)c2ccc(Br)cc2)CC1`, for which the survival was inactive: 108%.
As to `CCNc1ccc2noc3c2c1C(=O)c1ccccc1-3`, the survival was inactive: 74%.
With `CCOc1ccc(-c2c(C)nn3c(C)c(C(=O)NCC(C)c4ccccc4)cnc23)cc1OCC` (stereo unspecified), the survival was inactive: 81%.
For `CCCCNS(=O)(=O)c1ccc(S(=O)(=O)n2cnc3ccccc32)cc1`, the survival is inactive: 107%.
Consider `Cc1c(CNC(C)c2ccccc2)c(C(=O)O)c(C)n1Cc1c(F)cccc1Cl` (stereo unspecified), for which the survival is inactive: 78%.
On to `CCOC(=O)C1CCCN(C(=O)c2cc3c(=O)n(C)c4ccccc4c3s2)C1` (stereo unspecified), for which the survival was active: 44%.
For `CC(C)(C)c1nc(NCc2cccs2)c2nnn(Cc3ccccc3Cl)c2n1`, the survival was inactive: 84%.
`O=C(Nc1ccccc1C(F)(F)F)c1noc2c1CCCCC2`: the survival is inactive: 66%.
As for `CCCc1nn(C)c2c(=O)[nH]c(-c3cc(S(=O)(=O)N4CCN(C)CC4)ccc3OCC)nc12`, the survival is inactive: 69%.
Consider `CCc1cccc(C)c1Nc1c(-c2ccc(N3CCOCC3)cc2)nc2ncccn12`, for which the survival was inactive: 75%.
As for `CC(=O)c1ccc(NC(=O)C2CCCN(S(=O)(=O)c3cn(C)cn3)C2)cc1` (stereo unspecified), the figure is inactive: 94%.
With `COc1cc(-c2noc(-c3nnn(-c4ccc(Cl)cc4)c3C)n2)cc(OC)c1OC`, the survival was inactive: 81%.
For `CCc1ccc(N2C(=O)CS(=O)(=O)C23C(=O)N(Cc2ccccc2)c2ccccc23)cc1` (stereo unspecified), the survival is inactive: 66%.
Turning to `Cc1ccc(-n2nc(CO)c(C(=O)NCCc3ccccc3)n2)cc1C`, the survival is inactive: 111%.
`CN(C)CCCNc1c2c(nc3cc(-c4cccc(F)c4)nn13)CCC2`: the survival is inactive: 103%.
Take `COc1ccc(Cn2c(C(=O)O)c(CNCCc3ccccc3Cl)c3ccc(C)cc32)cc1`: the survival was inactive: 80%.
Take `Cc1ccc(-n2nc3c(=O)n(C(C)C(=O)O)nc(C)c3c2C)cc1` (stereo unspecified): the survival was inactive: 101%.
With `O=C(O)c1ccc(N=NN2CCCCC2)cc1`, the survival was inactive: 75%.
Take `COc1cccc(CNC(=O)Cn2c(=O)oc3cc(S(=O)(=O)N4CCC(C)CC4)ccc32)c1`: the survival was inactive: 124%.
With `CCOC(=O)N1CCN(C(=O)CN(Cc2ccc(F)cc2)S(=O)(=O)c2ccc(C)cc2)CC1`, the survival is inactive: 87%.
As for `CCC(=O)N1CCc2cc(S(=O)(=O)CCC(=O)NCc3ccc(F)cc3)ccc21`, the figure is inactive: 90%; as for `Cc1cccc(NC(=O)CSc2nnc(-c3ccoc3C)n2CC(C)C)c1C`, inactive: 52%; as for `c1ccc2oc(SCc3nc4c5c6c(sc5ncn4n3)CCCC6)nc2c1`, inactive: 67%.
For the molecule `Cc1c2cnn(CC(=O)Nc3ccc(F)cc3F)c(=O)c2c(C)n1Cc1cccc(Cl)c1`, the survival is inactive: 89%.
